From the supplement of paper PMC3334620
In all, about 33,000 sequences were measured (“E-score (-0.5 to 0.5)”: median about -0.056, highest 2% from about 0.38 on). Some of the results follow.

Target: Stb4 (UniProt P50104)
Test: PBM E-score (8-mer binding enrichment) (E-score (-0.5 to 0.5)); higher = stronger / more preferred TF binding; most listed sequences are background and not binding sites
Conditions: protein concentration: 200 nM; construct: GST-DNA-binding domain
Summary of the method: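 Yeast transcription factors carrying a GST tag, as full-length proteins or DNA-binding domains, were produced by PURExpress in vitro transcription/translation. About 100-200 nM protein was applied to universal all-10-mer Agilent arrays, double-stranded by primer extension on fresh or once-stripped slides. Bound protein was detected with fluorescent anti-GST, and scans were normalised with masliner. The Universal PBM Analysis Suite gave each ungapped eight-base word, pooled with its reverse complement, an E-score, a modified Wilcoxon-Mann-Whitney statistic.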

Sequence | PBM E-score
CGGGGGTC | 0.0962
AAATACAA | 0.0523
GCCTGTAC | 0.0775
CACTTCGC | -0.162
CATGAAAA | -0.0912
GGGAACCC | 0.0924
CCGGCTCG | 0.348
CGACGAGA | 0.0326
CAATGAAG | -0.331
AATAGTAT | 0.0933
CTATGTTC | -0.017
AACAGAGA | -0.0643
ATGGGGCC | -0.209
CCATCAAC | -0.251
AGACCACT | -0.228
AATAAGTC | -0.262
GCCAGCGA | -0.13
AACTTATT | 0.113
AACGGTTA | 0.104
ACACTAGC | -0.187
GAGTGGGC | 0.0172
AATTCTGC | -0.0158
AAGCGGCG | 0.0131
TACATCAA | -0.14
CCGACTCG | 0.295

Sequence | PBM E-score
AGATTTGG | -0.196
CACAACCA | 0.0206
CGCTCGCC | -0.0544
AGTCTCCA | -0.294
CTCCGCGA | 0.0734
GGTGTGTA | -0.16
GCTCAAGA | -0.222
CTGTATTC | 0.0647
CCATTGCC | 0.0986
CCGAATCC | 0.427
CCGATGAG | 0.257
CGGCCAAG | 0.00948
GGGTAGAC | 0.0641
CTAGTCAA | -0.133
ACCATGAT | -0.0957
TTGGCAAA | -0.183
TAATGGCA | -0.122
CTCTTGCA | -0.13
ACCTTGAC | -0.126
ACATCCTC | 0.0584
ATCTCACC | 0.0345
CTCCTTAA | -0.0953
GGCTGGAC | -0.0621
AGTCACTG | -0.274
ATTTAAAC | -0.197

Sequence | PBM E-score
ATATGTCG | -0.00545
ACGAACTC | -0.0195
AATATACA | -0.185
GGTGGTGA | 0.0903
CGTGTTCA | -0.127
TAACCTTA | -0.0931
ACGCTAAT | 0.0721
CAGGACGG | -0.091
ACAGTGCT | -0.181
ATCTCAAT | -0.0916
CTCTTAAA | -0.149
CTTATATC | 0.0498
CCTAATCA | 0.0039
AGATCCCC | -0.0874
AGGATAGA | -0.107
AGCCCATG | -0.273
AGTCTCGG | 0.39
ATGGCATA | -0.124
AGTCCCCC | -0.311
AGAAGAAT | 0.023
CACTCACC | -0.107
AAGGCTCT | -0.127
ATGTCCCC | 0.0519
ATTACTTC | -0.0323
CCTTTGGA | -0.163

Sequence | PBM E-score
AAAGCGCC | -0.0491
AGATAATA | -0.0269
AAATGAAT | -0.214
CGTTCCTA | -0.00632
AGAGAAAT | -0.0233
AAACGTGG | -0.162
GAGGTGCA | -0.0012
CGACTATA | -0.0289
AGCCCTAA | -0.00381
ACACACGA | -0.175
CTATCCAC | -0.0315
ACTGGATC | 0.0403
ATACTGCA | 0.225
CAGATCAG | -0.088
CGCCACTC | -0.00773
ATCGGCCC | 0.269
AAACAGAA | -0.265
CCTCACTA | -0.181
TATTAGGA | -0.129
CTTCCAGA | -0.109
CGGCGTAA | 0.083
CTCATACA | -0.00666
AATTCCAA | -0.07
GCTCCTAA | -0.13
AGGATCCC | 0.0362

Sequence | PBM E-score
GGTCAAAC | 0.053
CCCTCGCA | -0.0413
GTCGGAAC | 0.454
GCTCAGAA | -0.0152
GCAACTGA | -0.0798
GGGATAAA | 0.105
ACACGCAG | -0.0986
ACTTTAAG | -0.105
CCTTTTGC | -0.151
GCATCCGC | 0.295
ACGCCTGC | -0.193
CGACCTTC | 0.169
AGGCCTTC | -0.0423
ACCTGAGT | -0.119
AGATACAG | -0.101
ACTGGCAG | 0.00127
GATCTCGA | 0.0551
GCATGTGA | -0.0762
GTCGCATA | -0.0784
GACATGCA | -0.109
ATGGGTCG | 0.2
CGACAGCA | -0.0338
AACTGACG | -0.175
CCGTTCGC | 0.0505
ACACCCTA | -0.164

Sequence | PBM E-score
AAGCAACC | -0.124
CCGCAGCC | 0.101
AGTTGAAG | -0.00772
CACATAAC | -0.231
GGTTACTA | 0.192
AACACATC | -0.0115
AGAGCGCT | -0.266
ATCCGACG | 0.452
GGACGGTA | 0.184
AGGACGAT | -0.16
CGCGCATA | -0.0424
AGGAACCG | 0.263
CACGCGAC | -0.062
ATCGGAAT | 0.434
GCCTGTCA | -0.247
CCTCTGGA | 0.0124
ACATAAGG | 0.119
ACCTTACA | -0.182
CCGCACGC | -0.0725
CCCTTGTC | -0.0245
ATAGTGCC | 0.00846
GGAGATAA | 0.116
CCTTTAAA | -0.13
ACGTAAAA | -0.0542
GCGACGAA | -0.14

Sequence | PBM E-score
AAGCAATG | 0.0123
TAAGGCTA | -0.188
AAGAGATT | 0.0547
CACTAATG | -0.0592
ACCAGTCT | -0.193
ACTCCCCC | -0.0781
ACTTGAAC | -0.0299
AAGTATAC | -0.14
GTGACGCA | -0.123
ACGTCTGG | -0.182
ACCGGTTG | 0.168
CGTCTCTC | 0.0264
ACTCTTCA | -0.226
GTCGAATA | -0.181
CATAATGG | -0.0604
CACAGCGA | -0.198
CCGTTACC | 0.161
ATACGCTA | 0.0599
AGACGGAG | 0.0481
GATATGAA | 0.103
ATTATGTA | 0.0615
ATCTTAGA | 0.0606
TGTCATAA | -0.24
GCGACTCC | -0.0979
CTCTGCAA | -0.0996

Sequence | PBM E-score
ATTCCTAA | -0.0499
AAACGAAG | -0.191
CGACGTTC | -0.025
GATCAAAA | -0.0588
GTGCGCCA | -0.157
TGGCTAAA | 0.0298
GTAAAAAA | 0.16
AACTCTTG | -0.264
AACACGGC | 0.121
AGTCTGGG | -0.0778
ATAAGGCC | -0.00625
AGTCGATA | -0.102
AGATGGGA | -0.151
AGCAATGC | -0.0495
AGACAGAT | -0.0832
AGTCGTTA | -0.218
CGTCCCCC | -0.0575
ACGGTGTA | 0.0257
ATAATCGG | 0.348
GCGGAAAC | 0.294
ATACCATC | 0.119
CCTTGTTA | -0.232
ATCTGATG | -0.192
ACTCCTCG | 0.0246
ACAGTGCG | -0.0137

Sequence | PBM E-score
GAGCGATA | -0.0934
GCGCACAA | -0.0676
AAGAATAT | 0.0558
CTAGTTGC | -0.112
ACGAGCGA | -0.402
GACTACAA | -0.216
GAATGGCA | -0.0284
CAGGAGGA | -0.256
CGCAGATA | -0.0801
ATCTCGAC | -0.239
GTATCTAA | -0.0722
ACAAAAAC | -0.0851
GAACATAC | 0.168
GGCAACAC | 0.0451
AGGCAGTA | -0.245
TAACGAAA | 0.00974
TCCGTACA | 0.257
GGTACCGA | 0.361
CACAGCTG | -0.197
ATTGTACC | 0.139
CTCACGGC | 0.0662
TACGCCGA | 0.26
GGCACTTA | 0.0496
AAATAGGG | 0.0217
AGTCTTAG | -0.124

Sequence | PBM E-score
CAGTTAGG | -0.281
GAAAAACC | 0.266
AAATTTAC | -0.0114
CTCGGTGC | 0.244
CGCACTGC | -0.183
AAGCGGGG | -0.173
CGTTTAAG | -0.0291
ACGCAGGG | -0.185
AACCATCG | 0.106
AGCTCAGC | -0.375
AACTGTAC | -0.172
GTGAATCA | -0.157
TCAATGCA | -0.185
CTGATGTA | -0.088
AGCGAATA | -0.196
AAATGTGT | -0.121
AGACGTCT | -0.218
ACCTTGAG | -0.0731
ACCAGGGT | -0.19
CAGAATGG | -0.0738
GGGTAAAC | 0.205
GAACAGTA | 0.133
GTTATACA | -0.0637
CCGGCCCC | 0.219
ATCATGCG | -0.0417

Sequence | PBM E-score
CGCAAGGC | 0.00538
ATCCTACA | -0.14
CGGAGCAC | 0.199
ATTCAAAG | -0.235
ACGGGGAG | -0.0728
CGTAACAG | 0.0322
CGCGGGTC | 0.213
CAACGACA | -0.11
CCTTAGTA | -0.124
CAGACCTA | -0.318
AACTCCGC | 0.114
AGTTCGAG | -0.165
AAATTCAC | 0.105
CACCGAAG | 0.228
ATGATCCC | 0.157
GATAAATA | 0.0194
TGGTTGAA | -0.175
GGCTAAAC | 0.151
GGGCGCAA | -0.261
GGATTATA | 0.117
AACGTCAC | -0.123
ACAAATCA | -0.0983
AGAGATGG | -0.101
GTGATAAC | -0.0714
TAGAGAGA | -0.172

Sequence | PBM E-score
CCCCAGGG | -0.153
GGATCACA | 0.228
GCGTCGCC | -0.117
CAATTGCC | 0.0172
CACCGCCA | -0.0882
CTCCAACC | 0.046
ATGCCCAC | -0.065
CGGTTCTA | 0.188
CTCGAAAA | -0.32
CAAAAACG | 0.144
CAACCAAG | -0.299
CGGGGGCA | 0.0216
ACATGAGC | -0.175
GAACGATA | -0.00218
GACGAATC | -0.125
AGTAACAG | 0.0685
AAGCCCGG | 0.301
CGCTCATA | -0.138
AGATACCC | 0.166
AAACCCTA | -0.16
CAGACCCC | -0.0742
ACCTCTGG | -0.0495
ACGTACAG | -0.037
ACGACGCG | -0.0636
GCAGCAGC | -0.243

Sequence | PBM E-score
GCACATCA | -0.14
AGGAGATG | -0.0793
TAGACTAA | -0.21
CACTGTGG | -0.332
GGGCCAAA | 0.0592
CGTTGATA | 0.0343
GTTCCAGA | -0.138
ATTCAATC | -0.0479
TGGGTTAA | -0.126
ACGTTACC | 0.0953
CCAGGGAA | -0.219
GTGTCACA | 0.124
CGATGGGA | 0.0778
ACACCTGG | -0.0317
GAAGGTCC | 0.0332
ATGGTTCG | 0.131
GGTCAATA | -0.139
CTAGTGTC | -0.00474
AATTAATT | -0.215
AGGACGTG | -0.229
GTTCTCGA | -0.166
AGGCCCCC | -0.044
TAAGTCGA | -0.226
GTTCGATA | -0.104
AATCCCCG | 0.262

Sequence | PBM E-score
ATCCGGGC | 0.405
AAAGGTCC | -0.0874
ACCTTGGA | -0.295
AGAGAGTG | -0.176
ACTTATGA | -0.143
GCTTTTTA | -0.0236
CTGGATAA | 0.137
ACGTGAGA | -0.173
CCGGAAGA | 0.389
AGTAAGGC | -0.0381
GAGTTGGC | -0.0113
CCCCAATA | -0.3
AAACCATC | 0.161
AACCGACG | 0.304
AGTTCTAA | -0.0393
AGTGACTC | -0.187
ACCACGCA | -0.233
CATACGCC | -0.11
CTGAGAGA | -0.241
